Results published in paper PMC4336329 (PLoS ONE, 2015).
Hit rate of the full screen: of about 310,000 compounds, about 2,200 (0.71%) showed an effect of 50% or more. Effects have a minus sign here. Some of the results follow.

target: human ether-à-go-go-related gene (hERG) potassium channel (human, UniProt Q12809); assay: primary screen, population patch clamp on CHO cells stably expressing hERG
Sequence (Q12809 whole entry, looked up): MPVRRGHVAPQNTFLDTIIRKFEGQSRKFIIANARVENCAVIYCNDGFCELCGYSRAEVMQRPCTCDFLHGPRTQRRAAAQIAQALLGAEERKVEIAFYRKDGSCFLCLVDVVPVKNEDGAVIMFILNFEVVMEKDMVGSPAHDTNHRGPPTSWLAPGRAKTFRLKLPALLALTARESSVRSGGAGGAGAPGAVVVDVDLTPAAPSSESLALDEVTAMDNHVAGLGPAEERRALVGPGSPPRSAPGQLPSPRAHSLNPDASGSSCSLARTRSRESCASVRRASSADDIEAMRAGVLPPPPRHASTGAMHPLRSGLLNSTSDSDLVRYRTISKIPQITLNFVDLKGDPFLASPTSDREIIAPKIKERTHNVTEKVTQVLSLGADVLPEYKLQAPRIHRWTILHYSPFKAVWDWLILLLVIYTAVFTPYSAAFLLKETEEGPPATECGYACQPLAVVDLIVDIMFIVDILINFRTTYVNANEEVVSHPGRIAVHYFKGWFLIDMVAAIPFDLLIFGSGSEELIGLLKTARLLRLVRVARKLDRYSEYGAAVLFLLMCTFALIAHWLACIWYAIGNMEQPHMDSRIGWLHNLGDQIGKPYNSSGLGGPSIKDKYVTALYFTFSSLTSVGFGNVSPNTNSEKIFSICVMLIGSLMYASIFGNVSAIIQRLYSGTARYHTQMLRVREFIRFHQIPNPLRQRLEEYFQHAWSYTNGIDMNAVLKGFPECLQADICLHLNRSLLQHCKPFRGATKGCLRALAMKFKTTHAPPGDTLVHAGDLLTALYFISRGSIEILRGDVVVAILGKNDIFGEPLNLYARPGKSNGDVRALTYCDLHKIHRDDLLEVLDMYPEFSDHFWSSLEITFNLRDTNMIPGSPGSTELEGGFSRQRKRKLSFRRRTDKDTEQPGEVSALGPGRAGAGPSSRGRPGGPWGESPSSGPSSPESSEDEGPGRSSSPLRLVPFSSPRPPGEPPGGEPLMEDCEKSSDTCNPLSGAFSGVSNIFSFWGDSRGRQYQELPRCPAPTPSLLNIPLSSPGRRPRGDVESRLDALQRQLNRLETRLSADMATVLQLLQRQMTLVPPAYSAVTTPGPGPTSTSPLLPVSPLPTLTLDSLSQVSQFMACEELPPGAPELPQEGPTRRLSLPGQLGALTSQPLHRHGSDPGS

| SMILES | hERG current change (%, negative = inhibition) at 1uM |
| --- | --- |
| NC(=O)CC(NC(=O)c1cccc(Br)c1)c1ccc(N2CCCCCC2)c([N+](=O)[O-])c1 (centres unmarked) | -1.98% |
| Cc1ccc2[nH]c(=O)c(CN(CCO)Cc3nnnn3CCc3ccccc3)cc2c1 | 3.95% |
| Cc1ccc2c(c1)C(c1ccc(O)cc1)(c1ccc(O)cc1)C(=O)N2C | 16% |
| COc1ccc(C2/C(=C(\O)c3ccc4c(c3)OCCO4)C(=O)C(=O)N2CCCN(C)C)cc1 (centres unmarked) | 14.9% |
| O=C(CCNC(=O)c1ccc(Br)cc1)NC1CCCc2ccccc21 (centres unmarked) | 5.53% |
| COC(=O)c1c(-c2ccccc2)nn(-c2ccccc2)c1C(=O)OC | 17.4% |
| CCCC(C)C1C(C#N)=C(N)Oc2c1c(=O)oc1ccccc21 (centres unmarked) | -1.25% |
| O=C1C(=O)c2c(C(=O)c3ccccc3)coc2-c2ccccc21 | 2.45% |
| COCCN1CCn2c(nc3cc(NC(=O)c4ccc(OC)cc4)ccc32)C1 | -0.405% |
| NS(=O)(=O)c1cccc(NC(=O)C2CC(=O)N(Cc3ccco3)C2)c1 (centres unmarked) | 9.06% |
| Cn1nc(C(F)(F)F)c(/C=N/OC(=O)c2ccc(Cl)cc2)c1Cl | 14.3% |
| Cc1cc(-c2nc3cccnc3s2)ccc1NS(=O)(=O)c1cccs1 | 15.4% |
| CCCCNC(=O)CCn1c(=O)c2ccccc2n(CC(=O)NCCc2ccc(OC)c(OC)c2)c1=O | 6.51% |
| O=C(CSc1nc2ccccc2s1)c1ccc(O)cc1O | 9.22% |
| O=C(CN1CCN(S(=O)(=O)c2ccc(Cl)cc2)CC1)NCc1cccs1 | -10.3% |
| CCCc1[nH]n(-c2ccc([N+](=O)[O-])cc2)c(=O)c1C=NCCN1CCNCC1 | -9.24% |
| Cc1ccc(S(=O)(=O)N2CC(C(=O)O)Oc3ccccc32)cc1 (centres unmarked) | 3.24% |
| COc1ccccc1NC(=O)c1ccc(S(=O)(=O)N2CCCC2)cc1 | -0.878% |
| CCCCOc1ccc(NC(=O)Cn2c(=O)ccc3c(C)cc(C)nc32)cc1 | 11.1% |
| Cc1ccc(C(=O)N/C(=C\c2ccccc2)C(=O)OCc2ccccc2)cc1 | 0.151% |
| COc1ccc(NC(=S)NCc2cccn2C)cc1 | 1.19% |
| Cc1cc(NC(=O)c2ccc(S(=O)(=O)N3CCOCC3)cc2)no1 | 9.09% |

| SMILES | hERG current change (%, negative = inhibition) at 1uM |
| --- | --- |
| CCNc1nc(NCC)nc(SCCOC(=O)COc2ccc(Cl)cc2Cl)n1 | 13.1% |
| Cc1ccc(S(=O)(=O)N2c3ccccc3-c3c(ssc3=S)C2(C)C)cc1 | -1.68% |
| CCCCc1ncc(CN2CCC(n3nccc3NC(=O)C(OC)c3ccccc3)CC2)[nH]1 (centres unmarked) | 6.27% |
| CCCCP(=O)(O)CCC(=O)O | 5.79% |
| Cc1cc(CC(=O)O)c2oc(-c3ccoc3)cc(=O)c2c1 | 15.1% |
| O=C(/C=C/Nc1ccc(Oc2ccccc2)cc1)c1ccco1 | 12% |
| CCCC(=O)Nc1ccc(C(=O)N/N=C2\CC(=O)CC(C)(C)C2)cc1 | -17% |
| CC(=O)Nc1ccc2nc(NC(=O)COc3ccccc3Cl)sc2c1 | 8.74% |
| Cn1ccnc1SCC(=O)NC1CC1 | 3.59% |
| COc1cccc(-c2cc(C(=O)NN3CCOCC3)c3ccccc3n2)c1 | -8.96% |
| CC(=O)Nc1ccc(C(=O)N/C(=C/c2ccccc2)C(=O)N2CCCCC2)cc1 | 11.2% |
| Cc1ccc(N(CC(=O)NCc2ccccc2)S(=O)(=O)c2c(C)noc2C)cc1 | 12.5% |
| CCc1ccc(-c2cc(-c3n[nH]c(=S)n3CC)c3ccccc3n2)cc1 | 3.58% |
| Cc1ccc(CN=Cc2[nH]c3ccc(Br)c(Cl)c3c2O)cc1 | 4.8% |
| COc1ccc2c(c1)CCCC21NC(=O)N(CC(=O)NC(=O)NCc2ccccc2)C1=O (centres unmarked) | 6.62% |
| CCOc1ccc([C@@H]2CC=C(C(=O)O)[C@H](c3ccc(F)cc3)N2S(=O)(=O)c2ccc(C)cc2)cc1 | 17.1% |
| COC(=O)c1ccc2c(=O)n(CCN3CCOCC3)c(=S)[nH]c2c1 | -6.87% |
| NS(=O)(=O)c1ccc(NC(=S)NCc2ccco2)cc1 | 9.92% |
| CCOc1c(Br)cc(CNc2ccc(N3CCOCC3)cc2)cc1OC | 22.4% |
| CCC1(CC)Cc2ccccc2-c2nc(-c3ccccc3)oc(=O)c21 | 1.97% |
| Cc1cccc(C)c1OCc1nc2ccccc2c(=O)n1/N=C/c1ccc(OCC(=O)O)cc1 | 14.7% |
| CN(CC(=O)Nc1ccc(Cl)c(C(F)(F)F)c1)C(=O)c1cccc(N2C(=O)CCC2=O)c1 | 3.45% |
